Laboratory results taken from the supplement of paper PMC3334620.
Whole data set: some 33,000 sequences, median “E-score (-0.5 to 0.5)” near -0.011, cut for the highest 2% near 0.28. Some of the results follow.

Target: T1, Gcr1 (UniProt P07261)
T1 sequence: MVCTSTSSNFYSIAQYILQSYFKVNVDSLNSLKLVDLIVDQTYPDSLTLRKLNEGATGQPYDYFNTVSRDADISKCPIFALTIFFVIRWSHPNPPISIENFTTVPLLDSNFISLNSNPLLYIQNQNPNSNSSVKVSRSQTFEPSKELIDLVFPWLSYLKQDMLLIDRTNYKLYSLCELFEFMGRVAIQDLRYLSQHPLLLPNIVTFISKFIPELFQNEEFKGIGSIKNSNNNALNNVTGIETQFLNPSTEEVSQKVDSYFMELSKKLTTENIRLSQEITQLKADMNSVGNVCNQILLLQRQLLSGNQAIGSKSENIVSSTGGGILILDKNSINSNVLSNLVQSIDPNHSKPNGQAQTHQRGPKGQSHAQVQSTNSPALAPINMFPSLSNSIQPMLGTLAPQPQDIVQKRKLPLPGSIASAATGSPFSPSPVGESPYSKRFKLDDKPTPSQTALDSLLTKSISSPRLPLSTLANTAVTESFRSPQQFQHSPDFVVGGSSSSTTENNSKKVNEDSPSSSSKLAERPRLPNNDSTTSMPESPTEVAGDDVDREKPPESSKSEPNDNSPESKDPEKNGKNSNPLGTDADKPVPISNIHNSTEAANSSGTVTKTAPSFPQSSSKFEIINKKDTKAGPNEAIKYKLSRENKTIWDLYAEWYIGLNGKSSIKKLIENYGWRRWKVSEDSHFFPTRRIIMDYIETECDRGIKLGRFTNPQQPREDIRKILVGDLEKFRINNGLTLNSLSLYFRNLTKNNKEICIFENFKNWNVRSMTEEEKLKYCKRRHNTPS
Test: PBM E-score (8-mer binding enrichment) (E-score (-0.5 to 0.5)); higher = stronger / more preferred TF binding; most listed sequences are background and not binding sites
Conditions: protein concentration: 100 nM; construct: GST-full length
Experimental: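 Universal 'all 10-mer' protein binding microarrays (Agilent AMADID 015681) probed with GST-tagged S. cerevisiae TFs (full-length or DBD) made by in vitro transcription/translation (PURExpress), about 100-200 nM. Bound TF was detected with fluorescent anti-GST. Each ungapped 8-mer (which stands for itself and its reverse complement) is scored by the PBM enrichment score (E-score), a modified Wilcoxon-Mann-Whitney statistic from -0.5 to +0.5, computed with the Universal PBM Analysis Suite. Scale: above 0.35 generally sequence-specific binding.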

Sequence | PBM E-score
ACTATCTG | 0.0432
AAGTGCAT | -0.167
CCCTCCAA | -0.0697
TTGTAAAA | 0.0978
ACATCGAG | -0.0044
GCGTTAAC | -0.0953
CTTTATGC | 0.0135
ACCTGTAA | -0.0579
CCCAGTAA | 0.265
ACAGAAAT | 0.0285
TCGAAGAA | -0.148
GCCCGTGA | -0.261
CCTAGATA | 0.0612
CGGTAACA | -0.115
AATAGTCG | 0.082
GCGAGCCC | -0.139
AGGGAGCA | -0.171
TTCGTAAA | 0.23
AGCATTGA | 0.00325
ACACAACT | 0.0269
AGCTCATA | -0.0759
CGTGACCA | -0.162
GCCTAGCC | -0.169
AAGAGGCG | 0.0559
AAGCACTT | -0.17

Sequence | PBM E-score
AGAGCCAC | 0.13
CTGTAGGA | 0.0663
CCGCACGA | -0.112
ATAGCACG | 0.131
ATGTTACC | 0.0433
CTAATGAG | -0.0278
GTGATCAA | -0.275
AGTGCGCG | -0.037
CAAATAAA | 0.0484
ACGCGCCT | 0.229
GTGCGGGA | 0.0399
AAGCGGTG | -0.142
CCTCAAGC | -0.00518
GTGGACTA | 0.113
GGCAGGCA | 0.00229
CAATAGTC | -0.225
ACCGGATA | 0.00906
AAAACGTT | -0.0204
AAGGTATT | -0.119
CCCATGAC | -0.131
CCACACTA | 0.114
CCTATGTC | 0.172
AGCCCCAA | 0.164
ACTCATCT | -0.0225
GATACCCC | -0.0734

Sequence | PBM E-score
CTGGAGAA | -0.22
CAATTCGG | -0.00575
AATCCAGC | 0.164
CCCCCTAG | -0.194
AACTGTTC | -0.0709
ACGCGCAG | -0.00268
GAAATCGC | 0.0189
AGCGATAC | 0.0533
CAGATAGG | 0.0828
AAGTCGAT | -0.119
AAATCTCC | -0.14
CAGAAAAG | 0.104
CTGAATAC | 0.121
TCATGCAA | -0.0976
CATTGGCA | 0.0197
AGTCTTGG | 0.0424
GGCCAAAC | -0.176
CGGCTAGC | -0.209
TCCCCGCA | -0.0108
AACTCACT | -0.189
GTCCGAGA | 0.081
ATATTCGC | 0.15
AAGGGGAT | 0.149
CACATCGA | -0.143
CAAAGTTG | -0.0106

Sequence | PBM E-score
AAGAACAT | 0.057
CCAGTCAG | -0.0325
GCATGATA | -0.0115
ATTAGAGA | -0.0115
CGAACAAG | 0.083
AAGGTGGT | 0.088
ACGACAAT | -0.0803
ACCACTAA | 0.285
GGGCTATA | -0.0411
CGCAAGGA | -0.0605
GTCCGAAA | 0.212
ACACCCGT | -0.0355
AGTGTGTC | -0.0681
ATATTCCG | 0.131
AAGTTAGC | 0.14
CATAGTGC | 0.0478
GGTTTGAA | -0.00939
CGCGGAGC | -0.112
GCAAGTTA | 0.132
GCTGCGAC | 0.131
CCCGTTGC | -0.024
CGCTCTTA | -0.132
CTGACCCA | -0.116
GCGGCACC | 0.324
GCAGACGA | -0.00236

Sequence | PBM E-score
CCGTTAGA | -0.184
CAACGTAG | -0.0877
ATACGACG | 0.135
TGTGCACA | -0.211
ACCTCGCT | -0.0253
AGTCGAAG | 0.00821
ATACCCGC | 0.165
CTACGGGA | -0.0438
CAACAGGA | 0.226
AATAACAG | 0.023
AGGAACCC | 0.414
ACCGCACT | -0.0376
CCTATTTA | 0.247
GGTGCACA | -0.0102
ATCGAAAG | 0.0655
AAGACAGA | 0.0846
AAACATTT | 0.114
AGGTGCGG | 0.084
TATATAGA | 0.139
CTTAAGGA | 0.089
ACGTGGCG | -0.111
ATGCTCTC | -0.181
GTTCGAAC | -0.273
AATGGTTG | 0.219
AATATTGG | 0.136

Sequence | PBM E-score
CGGATGCC | 0.404
AGCCCGTC | -0.126
AAAACGAA | 0.0166
CAAATGAG | -0.0616
GAACGGAA | 0.147
ACCGGAAT | 0.185
GATAGAGA | -0.208
CGTTAGAC | -0.206
ATTCGCAC | 0.151
CAAACTCG | -0.0788
AGGCCGCG | 0.0497
AGTATGAG | 0.0911
AATTCTCC | 0.132
CATGAACA | 0.0345
CACGACAG | -0.156
GCCTATTA | 0.0413
CCCTGGAC | 0.00836
CACATATA | 0.00725
TGAAGTCA | -0.142
CATTGATA | 0.121
ACAGACGT | -0.102
GCCACCCC | -0.0686
CGGGAGAG | -0.159
ACATTGCC | -0.215
CGAGTCGA | -0.0785

Sequence | PBM E-score
TCGTTTCA | 0.077
AAACAGTC | -0.193
CAGTATAA | 0.12
GCCTAGAC | -0.0881
GATACTCC | -0.102
AGCGAATC | -0.0692
CAAAAAAG | 0.0858
ACGTGGTA | 0.0341
AAAGTATG | -0.142
CATCGCGC | 0.0318
GCCTACGC | -0.251
CTCGCAAC | 0.116
AATAATAG | 0.174
GATACCAA | 0.154
CTTGACGA | 0.0408
AGTTAATG | 0.139
ACGTGGTC | -0.122
TCTGCTAA | 0.134
CCCACGCA | -0.152
ATTAATCC | -0.00583
ATGTAGGG | -0.0731
AACCCCGT | -0.16
